# Several values for one entry are separate records, joined by “and”; a condition that tells them apart may be missing. Equal values may be shown once. The whole screen tested about 390,000 compounds, of which about 150 (0.038%) were called active. The shares of active, inactive and inconclusive entries below differ from those in the screen. The call rests on the fitted dose curve; in most records, active means well fitted inhibition curve with a large enough effect; inconclusive means small, poorly fitted or top-dose-only effect; inactive means no such curve, though single readings can be large or run the other way. Where the call is inconclusive, the potency comes from a doubtful curve fit. A structure can be active in one record and inactive in another.
# Target: Regulator of G-protein signaling 4 (Homo sapiens) (UniProt P49798)
# Experiment: Inhibitors of Regulator of G Protein Signaling (RGS) 4: qHTS; further: nearly all actives have a fitted effect of over 75% in size
# Settings: Transcreener GDP fluorescence polarization, RGS4-accelerated GTP hydrolysis; series mostly up to 114 µM
# Summary of the method: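 MLSMR compounds (23 nl, pin-transferred) preincubated 10 min at room temperature with a 500nM (2x) first reagent, then RGS4 at 900nM (2x) plus Transcreener GDP mix added; fluorescence polarization (620/688 nm) read before and after 90 min at 30 °C.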
# On the % scale 0 is the no-effect control and ±100 the full control effect; potency means the concentration at half of the fitted maximal effect; tags describe the fitted curve by direction and shape.
# Sequence of UniProt P49798 (P49798 whole entry, looked up): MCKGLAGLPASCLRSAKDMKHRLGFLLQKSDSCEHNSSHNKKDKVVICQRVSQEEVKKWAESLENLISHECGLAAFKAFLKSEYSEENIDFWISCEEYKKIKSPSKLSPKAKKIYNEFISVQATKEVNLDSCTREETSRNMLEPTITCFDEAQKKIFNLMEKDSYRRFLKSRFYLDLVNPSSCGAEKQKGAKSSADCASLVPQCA
Compound,Potency,"activity change, negative = inhibition"
Cc1cccc(C)c1NC(=S)NCCc1ccc(O)c(O)c1,inactive,–
O=C(Cn1ncc(N2CCOCC2)c(Cl)c1=O)c1ccc(Cl)cc1,inactive,–
Cc1ccc2c(c1)C(=O)c1c(C(=O)O)cccc1-2,"inconclusive: 79.4 µM [inhibitor, partial curve, poor fit]",–
CC(C)(C)Cc1nnc(NC(=O)Cc2cccs2)s1,"inconclusive: 79.4 µM [inhibitor, partial curve, poor fit]",–
N#C/C(=C\c1ccc(O)c(O)c1)C(=O)NCCc1ccccc1,inactive and active: 18.9 µM,–
Fc1cccc2sc(Nc3nnc(-c4ccccc4)o3)nc12,"inconclusive: 35.5 µM [inhibitor, partial curve, poor fit]",–
Cc1ccc(-n2nc3ccc(NC(=O)c4ccco4)cc3n2)cc1,"inconclusive: 17.8 µM [inhibitor, full curve, poor fit]",–
O=c1[nH]c(=O)c2nc3ccccc3nc2[nH]1,"inconclusive: 37.7 µM [inhibitor, single point]",–
CN(C(=O)COC(=O)C1CCN(S(=O)(=O)c2c(Cl)cccc2Cl)CC1)C1CCCCC1,"inconclusive: 89.1 µM [inhibitor, single point]",–
COCc1nnc(NC(=O)COc2ccc3c(c2)OCO3)s1,"inconclusive: 79.4 µM [inhibitor, single point]",–
COC(=O)c1c(-c2cccnc2)csc1NC(=O)c1cc(C)on1,"inconclusive: 35.5 µM [inhibitor, partial curve, poor fit]",–
Nc1c(S(=O)(=O)c2ccccc2)c2nc3ccccc3nc2n1Cc1ccco1,"inconclusive: 79.4 µM [inhibitor, single point]",–
O=C(N/N=C/C(Br)=C/c1ccccc1)c1ccc([N+](=O)[O-])cc1,"inconclusive: 20 µM [inhibitor, full curve, poor fit]",–
CCCCNc1nc2c(-c3cccc(Br)c3)nnn2c2ccccc12,inactive,–
COc1ccc(C2=Nc3ccccc3N(CC(=O)Nc3cccc(C(C)=O)c3)C(=O)C2)cc1,"inconclusive: 89.1 µM [inhibitor, single point]",–
CC1CC(=O)c2c(cc3c(-c4c(O)cc(O)c5c(O)c6c(cc45)OC(C)CC6=O)c(O)cc(O)c3c2O)O1 (configuration not stated),"inconclusive: 56.2 µM [inhibitor, partial curve, poor fit]",–
S=C1NC2=C(CCC/C2=C\c2ccc(Cl)cc2)C(c2ccc(Cl)cc2)N1 (configuration not stated),"inconclusive: 50.1 µM [inhibitor, partial curve, poor fit]",–
CC(C)c1ccc(NC(=O)c2cc(S(=O)(=O)NCCC3=CCCCC3)ccc2F)cc1,inactive,–
COC(=O)CSc1[nH]c2ccc(F)cc2c1[N+](=O)[O-],"inconclusive: 11.2 µM [inhibitor, full curve, poor fit]",–
Cc1nnc(N2CCC(C(=O)NCc3cccc(Cl)c3)CC2)c2nn(-c3ccccc3)c(C)c12,"inconclusive: 89.1 µM [inhibitor, single point]",–
COc1ccc(S(=O)(=O)Nc2c(O)ccc3ccccc23)cc1OC,"inconclusive: 44.7 µM [inhibitor, partial curve, poor fit]",–
O=C(Nc1cccc(Cl)c1)C1=Cc2cc(Cl)ccc2OC1,inactive,–
Cc1cc(C)c(C#N)c(SCC(=O)c2cccs2)n1,inactive,–

Compound,Potency,"activity change, negative = inhibition"
COc1cccc(/C=N/NC(=O)CCn2cnc3ccccc32)c1,inactive,–
COc1ccccc1/C=C/C=c1\sc2nc(=O)c(Cc3ccccc3)nn2c1=O,"inconclusive: 50.1 µM [inhibitor, partial curve, poor fit]",–
COc1ccccc1NS(=O)(=O)c1cc(NC(=S)NCCN2CCOCC2)ccc1N1CCOCC1,"inconclusive: 28.2 µM [inhibitor, full curve, poor fit]",–
Cc1ccc(S(=O)(=O)N2CCN(CC(=O)N/N=C/c3ccccc3OCC(=O)O)CC2)cc1,"inconclusive: 89.1 µM [inhibitor, single point]",–
CN(C)c1ccc(-c2nc3ccccn3c2Nc2ccc3c(c2)OCCO3)cc1,inactive,–
Cc1ccc(C(C)C)c(OCC(=O)Nc2ccc(-c3nc4ncccc4o3)cc2C)c1,inactive,–
CC(=O)Nc1nc(C)c(-c2csc(Nc3cccc([N+](=O)[O-])c3)n2)s1,"inconclusive: 79.4 µM [inhibitor, partial curve, poor fit]",–
COc1cc([N+](=O)[O-])ccc1N=Nc1c(N)[nH]n(-c2ccccc2)c1=O,"inconclusive: 50.1 µM [inhibitor, partial curve, poor fit]",–
S=c1[nH]nc(-c2cc(-c3ccccc3)n[nH]2)n1/N=C/c1cccc(Cl)c1,"inconclusive: 50.1 µM [inhibitor, partial curve, poor fit]",–
Cc1ccc(Cn2c(=N)c(C(=O)NCc3ccco3)cc3c(=O)n4ccccc4nc32)cc1,"inconclusive: 79.4 µM [inhibitor, partial curve, poor fit]",–
CC(=O)c1c(C)[nH]c(C(=O)OCc2ccc(Br)cc2)c1C,inactive,–
Cc1ccc(CNC(=O)CCCOc2cc(=O)n(C)c3ccccc23)o1,inactive,–
COc1ccc(CCNC(=O)C2CCC(=O)N2Cc2ccccc2Cl)cc1OC (configuration not stated),inactive,–
CCCC[C@@H]1CCCO[C@@](C(=O)NCc2ccc(S(C)(=O)=O)cc2)(C(F)(F)F)C1,inactive,–
CCOc1ccc(C(=O)C(CCC(CN(C)C)C(=O)c2ccc(OCC)cc2)CN(C)C)cc1 (configuration not stated),–,inactive: -12.7% [at 11.4 µM]
COc1cccc(C(=O)Oc2cc3c4c(c2)C(C)=CC(C)(C)N4C(=O)C3=O)c1,"inconclusive: 31.6 µM [inhibitor, partial curve, poor fit]",–
Cc1ccc(-c2ccc(/C=C3/NC(=O)NC3=O)o2)cc1[N+](=O)[O-],"inconclusive: 44.7 µM [inhibitor, partial curve, poor fit]",–
Cc1c(C(=O)N2CCCCC2)oc2ccc(Br)cc12,"inconclusive: 89.1 µM [inhibitor, partial curve, poor fit]",–
O=C(Nc1ccc2c(c1)OCCO2)c1coc2ccccc2c1=O,"inconclusive: 35.5 µM [inhibitor, full curve, poor fit]",–
Clc1cccc(-c2ccc(C3Nc4cccc5cccc(c45)N3)o2)c1,"inconclusive: 112 µM [inhibitor, partial curve, poor fit]",–
COc1ccc(-c2cc(C(=O)N(C)Cc3ccccc3F)c3ccccc3n2)cc1OC,inactive,–
CCN(CC)c1ccc(N=Nc2ncn[nH]2)cc1,inactive,–
O=C(Nc1cccc2nsnc12)c1cc2c(cc1Cl)Sc1nccn1S2(=O)=O,"inconclusive: 79.4 µM [inhibitor, partial curve, poor fit]",–

Compound,Potency,"activity change, negative = inhibition"
CN(C)CCn1nnnc1SCC1=C(C(=O)O)N2C(=O)[C@@H](NC(=O)Cc3csc(N)n3)[C@H]2SC1,inactive,–
Cc1ccc(NC(=O)c2ccc(OC(F)(F)F)cc2)cc1S(=O)(=O)N(C)C,inactive,–
Cc1ccc(NCc2n[nH]c(=S)n2-c2cccc(Cl)c2)cc1,"inconclusive: 17.8 µM [inhibitor, full curve, poor fit]",–
COc1cccc(CN2CC(C(=O)NCCSc3nnnn3C)CCC2=O)c1 (configuration not stated),"inconclusive: 100 µM [inhibitor, single point]",–
Cn1c2ccccc2c2c(C(=O)NCC3CCCO3)cn(C3CCCC3)c(=O)c21 (configuration not stated),inactive,–
CCOC(=O)C1=C(N)n2c(s/c(=C\c3ccco3)c2=O)=C(C(=O)OCC)C1c1ccco1 (configuration not stated),"inconclusive: 70.8 µM [inhibitor, partial curve, poor fit]",–
COc1ccc(CCNC(=O)CC(Cc2ccc(C)cc2)C(=O)O)cc1OC (configuration not stated),"inconclusive: 56.2 µM [inhibitor, partial curve, poor fit]",–
CCN1CCN(CC(=O)Nc2cc(S(=O)(=O)N(CC)c3ccccc3)ccc2Cl)CC1,inactive,–
O=C(/C=C/c1ccc(OC(F)F)cc1)OCC(=O)N1CCN(C(=O)c2ccco2)CC1,"inconclusive: 79.4 µM [inhibitor, single point]",–
Cc1cc(Nc2ccc(Br)c(C)c2)n2nc(C)nc2n1,"inconclusive: 17.8 µM [inhibitor, full curve, poor fit]",–
Cn1c(=O)cc(OCC(=O)N2CCN(c3ccccc3F)CC2)c2ccccc21,"inconclusive: 100 µM [inhibitor, partial curve, poor fit]",–
CCOc1cc(/C=N/O)ccc1OCc1ccc(F)cc1,"inconclusive: 50.1 µM [inhibitor, partial curve, poor fit]",–
CCC(C)c1ccc(NC(=O)CSc2nncn2N)cc1 (configuration not stated),inactive,–
Cc1ccc(S(=O)(=O)N2C(=O)CCC2C(=O)Nc2ccc3c(c2)OCCO3)cc1 (configuration not stated),inactive,–
CCCCOc1ccc(Cn2c(=O)oc3ccccc32)cc1,inactive,–
Cc1cc(=O)[nH]c(N/N=C/c2c(O)n(-c3ccccc3)c(=O)c3ccccc23)n1,inactive,–
O=C(Nc1nc(-c2ccccn2)cs1)c1ccc(F)c(S(=O)(=O)N2CCOCC2)c1,"inconclusive: 25.1 µM [inhibitor, full curve, poor fit]",–
CCCCCn1c(=O)[nH]c2cc(C(=O)NCCN3CCOCC3)ccc2c1=O,inactive,–
CCc1nc(-c2ccc(OC)c(OC)c2)cc2cc(OC)c(OC)cc12,inactive,–
COc1ccc2c(CNC3CCC(C)CC3)c(C(=O)O)n(Cc3ccccc3)c2c1 (configuration not stated),inactive,–
Cc1[nH]c2ccccc2c1/C=N/NC(=O)CCC(=O)NCc1ccccc1,"inconclusive: 25.1 µM [inhibitor, full curve, poor fit]",–

# — PubChem BioAssay AID504845 (National Center for Advancing Translational Sciences (NCATS), 2011)
